According to the antibiotic and cytotoxicity screens of Wong et al. (2023):
The list shows a part of the results.

tested on: S. aureus RN4220; assay: growth inhibition call (relative growth <= 0.2); details: 50 µM

Growth inhibition call, inactive:
Cc1noc(C)c1S(=O)(=O)Nc1cccc2c1O[C@H](CN(C)C(=O)NC(C)C)[C@H](C)CN([C@H](C)CO)C2=O
COc1ccc(NC(=O)N(C)C[C@H]2OCCCC[C@@H](C)Oc3ccc(NS(=O)(=O)c4ccc(OC)cc4)cc3C(=O)N([C@H](C)CO)C[C@@H]2C)cc1
Cc1cc(C(=O)Nc2cccc3c2O[C@H](CN(C)C(=O)Nc2ccc4c(c2)OCO4)[C@@H](C)CN([C@@H](C)CO)C3=O)n(C)n1
C[C@H](CO)N1C[C@H](C)[C@H](CN(C)Cc2ccc3c(c2)OCO3)Oc2ccc(NC(=O)CCCN(C)C)cc2C1=O
C[C@H](CO)N1C[C@H](C)[C@H](CN(C)Cc2ccc3c(c2)OCO3)OCCCC[C@H](C)Oc2ccc(NC(=O)Nc3ccc4c(c3)OCO4)cc2C1=O
Cc1cccc(Nc2ccncc2S(=O)(=O)NC(=O)NC(C)C)c1
CC(C)NC(=O)N(C)C[C@H]1Oc2cc(C#Cc3ccccn3)ccc2S(=O)(=O)N([C@@H](C)CO)C[C@H]1C
C[C@@H]1CN([C@H](C)CO)C(=O)Cc2cc(NC(=O)C3CC3)ccc2O[C@H]1CN(C)S(=O)(=O)c1ccc(F)cc1
C[C@@H]1COC(=O)[C@@H](NC(=O)OCC2c3ccccc3-c3ccccc32)CC=CC[C@H](CC(=O)NCCO)C(=O)N1
O=C(O)C[C@@H]1CC[C@@H]2[C@H](COC[C@@H](O)CN2S(=O)(=O)c2ccc(F)cc2)O1
C[C@H](CO)N1C[C@H](C)[C@H](CN(C)S(=O)(=O)c2cccc(F)c2)Oc2cc(C#CCN(C)C)ccc2S1(=O)=O
COc1ccc([C@@H]2CC=CC[C@H](C)Oc3ccccc3C(=O)N(C)[C@H](Cc3ccccc3)C(=O)N2)c(OC)c1
C[C@@H]1CN([C@H](C)CO)C(=O)c2cc(NC(=O)c3ccccc3)ccc2O[C@@H](C)CCCCO[C@@H]1CN(C)CC1CCCCC1
COc1ccc(CN(C)C[C@@H]2OCCCC[C@@H](C)Oc3ccc(NC(=O)NC(C)C)cc3C(=O)N([C@@H](C)CO)C[C@H]2C)cc1
O=C(C[C@@H]1C[C@@H]2c3cc(NC(=O)NC4CCCC4)ccc3O[C@@H]2[C@H](CO)O1)NCCN1CCCCC1
O=C([C@H]1[C@H](CO)[C@H]2Cn3c(cccc3=O)[C@@H]1N2CC1CCCC1)N1CCOCC1
NNC(=O)COc1ccccc1
O=C(Nc1cccc2cccnc12)[C@@H]1[C@H](c2ccc3ccccc3c2)CC(=O)N1C(=O)OCc1ccccc1
C[C@H]1CN([C@@H](C)CO)S(=O)(=O)c2ccc(C#CC3(O)CCCC3)cc2O[C@@H]1CN(C)C(=O)Nc1ccc(F)cc1
C[C@@H]1CN([C@H](C)CO)C(=O)Cc2cc(NC(=O)Nc3ccc(C(F)(F)F)cc3)ccc2O[C@H]1CN(C)C(=O)Nc1ccccc1
COc1ccc(S(=O)(=O)N[C@H]2CC[C@H](CCNC(=O)CN3CCOCC3)O[C@@H]2CO)cc1
C[C@@H]1CN([C@@H](C)CO)C(=O)c2cc(NS(=O)(=O)c3cn(C)cn3)ccc2O[C@H]1CN(C)S(=O)(=O)c1ccccc1
C[C@@H]1CN([C@@H](C)CO)C(=O)Cc2cc(NC(=O)Cn3cnnn3)ccc2O[C@H]1CN(C)CC1CCCCC1
COC(=O)[C@@H](N)c1cccc(Cl)c1
COc1ccc(C#Cc2cnc3c(c2)C(=O)N([C@H](C)CO)C[C@H](C)[C@@H](CN(C)CC2CCOCC2)O3)cc1
C[C@@H]1CN([C@H](C)CO)C(=O)c2cc(NS(=O)(=O)c3cn(C)cn3)ccc2O[C@@H](C)CCCCO[C@H]1CN(C)C(=O)Nc1ccc(C(F)(F)F)cc1
COC(=O)CNC(=O)c1ccc(S(=O)(=O)N2CCOCC2)cc1
CCC(=O)N(C)C[C@H]1Oc2ncc(C#C[C@@H](C)O)cc2C(=O)N([C@@H](C)CO)C[C@H]1C
COCCNC(=O)C[C@@H]1C[C@H]2c3cc(NS(C)(=O)=O)ccc3O[C@H]2[C@@H](CO)O1
Cc1noc(C)c1NC(=O)Nc1ccc2c(c1)C(=O)N([C@H](C)CO)C[C@H](C)[C@@H](CN(C)Cc1ccncc1)OCCCC[C@@H](C)O2
Nc1ncnc2c1ncn2[C@@H]1O[C@H](CO)C[C@H]1O
CN(C)CCCNC(=O)C[C@@H]1CC[C@@H]2[C@H](COC[C@@H](O)CN2C(=O)Nc2cc(Cl)cc(Cl)c2)O1
C[C@@H]1CCCCO[C@@H](CN(C)S(=O)(=O)c2ccc(Cl)cc2)[C@H](C)CN([C@@H](C)CO)C(=O)c2cc(NC(=O)Nc3ccccc3)ccc2O1
O=C1CNc2cc(C(=O)O)ccc2N1
C[C@@H]1CCCCO[C@@H](CN(C)CC2CCCCC2)[C@H](C)CN([C@H](C)CO)C(=O)c2cc(NS(=O)(=O)c3ccc(F)cc3)ccc2O1
CCC(=O)n1ccc(C(=O)N2CCOCC2)n1
C[C@H](CO)N1C[C@H](C)[C@@H](CN(C)Cc2ccc(Oc3ccccc3)cc2)Oc2c(NS(=O)(=O)c3ccccc3)cccc2C1=O
O=C(Cc1ccccn1)NCC[C@H]1CC[C@@H](NC(=O)CN2CCOCC2)[C@H](CO)O1
C[C@@H]1CCCCO[C@H](CN(C)Cc2ccccc2)[C@H](C)CN([C@H](C)CO)C(=O)c2cc(NS(=O)(=O)c3ccc(F)cc3)ccc2O1
Cc1noc(C)c1S(=O)(=O)N(C)C[C@@H]1OCc2cn(nn2)CCCC(=O)N([C@H](C)CO)C[C@@H]1C
